Measured values reported in PMC12136788.
Some of the results follow.

T1: UNK ZnF1-6 (called full-length) (human, UniProt Q9C0B0 30-357)
T1 sequence: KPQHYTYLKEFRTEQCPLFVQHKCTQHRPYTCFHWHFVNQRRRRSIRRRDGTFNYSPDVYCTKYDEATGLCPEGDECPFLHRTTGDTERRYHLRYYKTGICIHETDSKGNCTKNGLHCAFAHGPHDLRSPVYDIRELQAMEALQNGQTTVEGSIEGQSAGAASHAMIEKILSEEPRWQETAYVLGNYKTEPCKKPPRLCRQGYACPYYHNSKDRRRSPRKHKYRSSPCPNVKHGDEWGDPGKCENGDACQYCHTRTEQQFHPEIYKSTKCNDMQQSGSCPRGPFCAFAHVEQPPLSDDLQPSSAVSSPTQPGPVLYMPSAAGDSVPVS

B1: chr11:111726697:111726798:+|3pUTR|ENSG00000170145|unk|total|mutant (ssRNA)
RNA: GGGAGUUCUACAGUCCGACGAUCGGAAGCUUCCAAGCAGUUUUCUCUUCAUCACUACUAACAAACAAAACACUAAGAAGGCUCCGUAUCGCUCUUUUUCUGCGGGGCUACUCUGAAGUACUGACUUGCUUUCCAGUCUGAUUCCAACAGAGGAUUGAGCAUCA
B2: chr10:99879964:99880065:-|CDS|ENSG00000107554|unk|total|mutant (ssRNA)
RNA: GGGAGUUCUACAGUCCGACGAUCCAGAUGCCCUUCAGACCCAGACUCCACCUCCCAGCCAAGGUCAGGGGACUCUGCAGAUGCCGCCCGAGAUGUAAAGCAACCCACUGCCACGCCGAGGAGCUACCGGAACUUCAGGCAUCCCAACAGAGGAUUGAGCAUCA
B3: chr2:89040223:89040519:-|CDS|ENSG00000243290|control|control|control (ssRNA)
RNA: GGGAGUUCUACAGUCCGACGAUCAUCUGUAGGAGACAGAGUCACCAUCACUUGUCGGGCGAGUCAGGGUAUUAGCAGCUGGUUAGCCUGGUAUCAGCAGAAACCAGGGAAAGCCCCUAAGCUCCUGAUCUAUGCUGCAUCCAGCAACAGAGGAUUGAGCAUCA
B4: chr8:41262032:41262394:-|3pUTR|ENSG00000104332|msi1|total|mutant (ssRNA)
RNA: GGGAGUUCUACAGUCCGACGAUCGGCCGUUCUGACCUGUUGCCAGCAGAUACACAGGACAUGGAUGAAAUUCCCGUUUCCUCCCGUUUCUUCCUGCCGUACUCCUCUUUCCGAUCCUAAGUCUCUUACAAAAGCUUUGAAUACCAACAGAGGAUUGAGCAUCA
B5: chr15:59081107:59081211:+|CDS|ENSG00000157450|unk|total|mutant (ssRNA)
RNA: GGGAGUUCUACAGUCCGACGAUCUUCUCAAAUAUCUUCUCAUGCAACAUCUCAUCCUGUGGCACCCCCACCACCAACUCACUCCGCCAGUACAGCUGCACCAAUCCCUCAGCAUCUUCCUCCUACACACCAGCCAAUUUCGCACAACAGAGGAUUGAGCAUCA
B6: chr16:3022182:3022332:+|3pUTR|ENSG00000006327|msi1|total|mutant (ssRNA)
RNA: GGGAGUUCUACAGUCCGACGAUCCCACGGGGGUCACCCUGGGGGGUCCGGGACCUAUUUUUAACACCCGGGGGCUGGCCCACCCGGAGGGCUGGCCCUAAGAUACAGACCCCCCCAACUCCCCAAAGCGGGGAGGAGAUAUUUCAACAGAGGAUUGAGCAUCA
B7: chr15:55376998:55377117:-|CDS|ENSG00000260916|unk|FALSE|unique (ssRNA)
RNA: GGGAGUUCUACAGUCCGACGAUCUAUCUAUAUUGGAACUGCCAGUGAUGAUUCUGAUAUUGUUACCCUUGAGCCACCUAAGUUAGAAGAAAUUGGAAAUCAAGAAGUUGUCAUUGUUGAAGAAGCACAGAGUUCAGAAGACUUCAACAGAGGAUUGAGCAUCA
B8: ENSG00000136451:be:win_4201|3pUTR|ENSG00000136451|bound_else_gene|NA|bound_elsewhere_windowed (ssRNA)
RNA: GGGAGUUCUACAGUCCGACGAUCCCCUUCUGGUUGUAACCUGGUUGAGAGCUUCCCCUUUAUCAGAUUGGCAGCUAAACAGUUGUAUUAGAUAAUCCUUAAAUCUGACAUCCAGCCUGUUACGCUCUAGGGCUCGCUGCUUGGCAACAGAGGAUUGAGCAUCA
B9: chrX:53532849:53532950:-|3pUTR|ENSG00000086758|unk|FALSE|unique (ssRNA)
RNA: GGGAGUUCUACAGUCCGACGAUCGUGCUCCUCAGAUUCUGUGUUCAGAAGGAUUUGCUGCAUUGAGACUUGAAACCUUUGGAUAGGGGAAAAAAUUAUAUAUAUAUAUAUUUUUUUGUUCUGUUUGCAUUUCUUAAUUUGUGCCAACAGAGGAUUGAGCAUCA
B10: chr8:54147534:54147638:+|CDS|ENSG00000137547|unk|total|mutant (ssRNA)
RNA: GGGAGUUCUACAGUCCGACGAUCAAGUAUGGUUAUAUCUUACCUGAUAUCACUAAAGAUGAACUCUUCAAAAUGCUCUGUACCCGGAAGGAUCCAAGGCAGAUUUUCUUUGGUCUUGCUCCAGGAUGGGUGGUGAAUAUGGCCCAACAGAGGAUUGAGCAUCA
B11: chr2:196807445:196807622:-|CDS|ENSG00000187944|control|control|control (ssRNA)
RNA: GGGAGUUCUACAGUCCGACGAUCAAGGGCAGAGGUCUUGAUCUUGGAACAUUUCCAAAUCCUUUCCCCACGAAUGAAAAUCCUAGACCUCUCUCUUUCCAGUCAGAACUUACUGCUUCUGCAUCUGCAGAUUAUGAAGAGCAGCAACAGAGGAUUGAGCAUCA
B12: chr16:74621626:74621727:-|3pUTR|ENSG00000168411|msi1|total|mutant (ssRNA)
RNA: GGGAGUUCUACAGUCCGACGAUCCAUCUCAAAAAAAACAAACAAACAAAAAAAAACCCUGAUGCCAUUCCCAGUCCCCGUUGCCGGACAUCACAUUUAUAAAUCCAGGCUUCCGUCUUCUGGGCUCCACCAGUCUCUGCCCCACAACAGAGGAUUGAGCAUCA
B13: chr9:15468732:15468834:-|CDS|ENSG00000164985|unk|FALSE|unique (ssRNA)
RNA: GGGAGUUCUACAGUCCGACGAUCAAUUAGGAAAACAAUUAUGAUGAAUGUAUAUUGUUUUCUCAGAUACGGCGAUUCAAAGUUAGUCAGGUAAUCAUGGAAAAGUCUACAAUGUUGUAUAACAAGUUUAAGAACAUGUUCUUGCAACAGAGGAUUGAGCAUCA
B14: chr5:37333503:37333606:-|CDS|ENSG00000113569|unk|total|mutant (ssRNA)
RNA: GGGAGUUCUACAGUCCGACGAUCGAUGACAGCUGGUGUUGAUGGUCAUUCCUGGGCUCUUUCUGCGACCGAUGAAUUGAAAGCCGAUAAAAUAAUUACACCUUUAAACAAGGAUCAUAUUCCAAUAACUGAUUCACCAGUUGUCAACAGAGGAUUGAGCAUCA

Molecular target: T1, UNK ZnF1-6 (called full-length)
Assay: nsRBNS (natural sequence RNA bind-n-seq); RBNS binding buffer (assumed for nsRBNS): 25 mM Tris pH 7.5, 150 mM KCl, 3 mM MgCl2, 0.01% Triton X-100, 500 ug/ml BSA, 20 U/ml SUPERase-In, 4 C; UNK is unkempt and MSI1 is Musashi-1; names of the RNAs are library labels; protein concentration not given here; high values mean tight binding

In order of rising binding signal:
1. B11  0.395 enrichment R
2. B1  0.424 enrichment R
3. B13  0.443 enrichment R
4. B6  0.486 enrichment R
5. B7  0.491 enrichment R
6. B14  0.505 enrichment R
7. B4  0.529 enrichment R
8. B10  0.536 enrichment R
9. B3  0.551 enrichment R
10. B8  0.608 enrichment R
11. B9  0.691 enrichment R
12. B5  0.944 enrichment R
13. B2  1.07 enrichment R
14. B12  1.18 enrichment R
